Source: the supplement of paper PMC10126150
Values marked as one replicate rest on one cluster of the flow cell; about a third of the high ones do not repeat.

Tested on: ATP
Experiment: switch fluorescence ratio, 500 uM ATP over buffer (Cy3 cluster intensity, sum of 5 cycles each) (fold (ratio)); higher = stronger signal-on switching upon ATP binding; sequences stand for … in TCGTCGGCAGCGTCAGATGTGTATAAGAGACAGTTTTTTTTTTTTTTTTTTTTTTTTT…TC
Conditions: aptamer strand: ATP DNA aptamer (quencher-CACCTGGGGGAGTATTGCGGAGGAAGG + anchor), 100 nM annealed; ATP concentration: 500 uM; one replicate
Outline: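 Per cluster, summed Cy3 intensity from the target cycles was divided by that from the buffer cycles to give the fluorescence ratio, then averaged per switch-domain sequence. Clusters outside 100-1000 RFU were excluded. The Cy3-labelled switching-strand clusters, on a modified Illumina MiSeq flow-cell, were annealed to 100 nM quencher-labelled ATP aptamer and imaged in selection buffer, then after 15 min with 500 uM ATP at 22 °C, for five cycles with NaOH stripping and re-annealing between them.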
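Also: ATP exposure 15 min at 22 °C before imaging.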

CATATGTGTG gave a switch fluorescence ratio of 0.968.

Work on GATAGCCGCT yielded a switch fluorescence ratio of 1.06.

In the case of ACAGGTAAAG, the switch fluorescence ratio is reported as 0.991.

TGCACCGCTA showed a switch fluorescence ratio of 1.09.

In the case of AGACTATAGA, the switch fluorescence ratio is reported as 1.04.

With ATTTACGTTT the switch fluorescence ratio was 1.01.

TTGTATGGAG showed a switch fluorescence ratio of 0.962.

AGACTGTCAG gave a switch fluorescence ratio of 1.02.

GTGATGAGTA was tested, and the switch fluorescence ratio was 0.93.

With AAATTAGCTC the switch fluorescence ratio was 0.942.

With CGGGAGCCTC the switch fluorescence ratio was 1.07.

For TGGCATAGT, the switch fluorescence ratio was 0.98.

For AGCCAGCGTT, the switch fluorescence ratio was 1.02.

CGTTTAAAAC gave a switch fluorescence ratio of 0.993.

GCCCCCTATT was tested, and the switch fluorescence ratio was 1.05.

CCGTTAGGAA gave a switch fluorescence ratio of 1.01.

AGATCGGGAA showed a switch fluorescence ratio of 0.973.

In the case of GGTACGTCTC, the switch fluorescence ratio is reported as 1.01.

TGATAAAGGC showed a switch fluorescence ratio of 1.07.

TGGTCGCCCG showed a switch fluorescence ratio of 0.954.

Work on GCAAGCGCTT yielded a switch fluorescence ratio of 0.99.

TGTCTCCGAC showed a switch fluorescence ratio of 1.01.

AGGTGCAACG showed a switch fluorescence ratio of 0.93.

TCGAGTTAGT showed a switch fluorescence ratio of 1.01.

In the case of TTCTAACATA, the switch fluorescence ratio is reported as 1.05.

For AATAAGGGTA, the switch fluorescence ratio was 1.03.

TAGCCATAAG showed a switch fluorescence ratio of 0.957.

GGAAAATCAC gave a switch fluorescence ratio of 1.03.

ATCTTTAAAA was tested, and the switch fluorescence ratio was 1.02.

In the case of CATTTAGGTC, the switch fluorescence ratio is reported as 1.

CTAGTCTTAT showed a switch fluorescence ratio of 0.987.

CTTTGAACGC gave a switch fluorescence ratio of 1.1.

ACCTTATCCG showed a switch fluorescence ratio of 1.59.

With GGCTGCAGCG the switch fluorescence ratio was 1.02.

TTAATATATT gave a switch fluorescence ratio of 0.98.

In the case of AAGTAGCTAG, the switch fluorescence ratio is reported as 0.96.

TATAGCCATC gave a switch fluorescence ratio of 1.05.

CTTCTGTAAT was tested, and the switch fluorescence ratio was 1.94.

For TGTTTCATTA, the switch fluorescence ratio was 0.956.

With AGAGCCTTGG the switch fluorescence ratio was 1.02.

Work on GTAGAAATCG yielded a switch fluorescence ratio of 1.04.

Sequence CATGTTTAGT has a switch fluorescence ratio of 0.982.

Work on TCGCTTGTCG yielded a switch fluorescence ratio of 1.02.

Sequence TGTAACCTCA has a switch fluorescence ratio of 1.05.

CTGATGTTTG was tested, and the switch fluorescence ratio was 1.05.

AACCTGTGTA was tested, and the switch fluorescence ratio was 1.01.

CCGAGACTTA was tested, and the switch fluorescence ratio was 1.25.

Sequence AACTGCGCCG has a switch fluorescence ratio of 1.07.

GATTACCTGT gave a switch fluorescence ratio of 0.997.

CTTATTAGTC showed a switch fluorescence ratio of 0.98.

Work on ACCGTACCGA yielded a switch fluorescence ratio of 1.64.

With CGTTGTGAAA the switch fluorescence ratio was 1.

CTTTCGCTGA gave a switch fluorescence ratio of 1.07.

Work on TATTCATAGA yielded a switch fluorescence ratio of 1.01.

For TACGTCGACG, the switch fluorescence ratio was 0.997.

In the case of GACCCTCTCC, the switch fluorescence ratio is reported as 1.45.

GTTAGAAGAA gave a switch fluorescence ratio of 0.979.

Work on TTGCCCTTTG yielded a switch fluorescence ratio of 0.999.

TAAGTATCGT gave a switch fluorescence ratio of 0.97.

Sequence GCTGCATAAT has a switch fluorescence ratio of 1.06.

CGTCCGAGGG gave a switch fluorescence ratio of 1.19.

Work on CAGCCCACCA yielded a switch fluorescence ratio of 1.03.

GCATCAGGGG gave a switch fluorescence ratio of 1.45.

Sequence TTTCGAATGC has a switch fluorescence ratio of 1.01.

CAGGCCACCG was tested, and the switch fluorescence ratio was 0.986.

In the case of TGGTCCCGC, the switch fluorescence ratio is reported as 1.11.

TCAACAGTGA showed a switch fluorescence ratio of 1.07.

CGACATCCGC was tested, and the switch fluorescence ratio was 2.67.

For CGCCATTTCC, the switch fluorescence ratio was 1.2.

CCTGCACGCG was tested, and the switch fluorescence ratio was 1.09.

CGCTAGCGG was tested, and the switch fluorescence ratio was 0.989.

With GAGCCACAAA the switch fluorescence ratio was 1.03.

TGCCTCTCCG was tested, and the switch fluorescence ratio was 1.15.

For ATGGATCATG, the switch fluorescence ratio was 1.02.

Work on CTCAATGGTG yielded a switch fluorescence ratio of 1.44.

AGACGGAATG showed a switch fluorescence ratio of 1.03.

In the case of TTTTTCTTGA, the switch fluorescence ratio is reported as 0.986.

Work on GGTACGAGCG yielded a switch fluorescence ratio of 0.977.

With TAAATGAGCA the switch fluorescence ratio was 0.955.

CCTGAACCTG showed a switch fluorescence ratio of 1.12.

Work on TTCGATGCAG yielded a switch fluorescence ratio of 0.977.

For CGCATGGTTT, the switch fluorescence ratio was 1.08.

For AATGTGTGAG, the switch fluorescence ratio was 0.993.

In the case of CATAACAGGG, the switch fluorescence ratio is reported as 1.

TCGGGAAAGT was tested, and the switch fluorescence ratio was 0.968.

GCCCCTTTTT gave a switch fluorescence ratio of 1.01.

Work on ATAGGGGGG yielded a switch fluorescence ratio of 1.03.

TTGTATGCAT showed a switch fluorescence ratio of 0.95.

Work on GCGTCAACCG yielded a switch fluorescence ratio of 0.961.

CGTTTACGAT showed a switch fluorescence ratio of 0.996.

With ATGCTAAGAC the switch fluorescence ratio was 1.23.

With AACTTTATGG the switch fluorescence ratio was 1.03.

With CACACATAGG the switch fluorescence ratio was 1.08.

GCCAGTGCCT was tested, and the switch fluorescence ratio was 1.03.

In the case of GGATCTCCAA, the switch fluorescence ratio is reported as 1.

With AATAGAATGC the switch fluorescence ratio was 0.901.

With ACACGTCTTT the switch fluorescence ratio was 1.07.

Work on ATATGTTCTT yielded a switch fluorescence ratio of 0.99.

With AACAGGATAC the switch fluorescence ratio was 1.11.

With CATTAACCTG the switch fluorescence ratio was 1.02.

TAACTTTCT was tested, and the switch fluorescence ratio was 1.05.

GATTAGACAT was tested, and the switch fluorescence ratio was 1.

CCCTCCGAGT gave a switch fluorescence ratio of 3.3.

For GGGGCCACGG, the switch fluorescence ratio was 1.02.

With ACGATCTCTT the switch fluorescence ratio was 0.951.

TATATACTAC gave a switch fluorescence ratio of 1.07.

CAGTGGAGGG showed a switch fluorescence ratio of 1.03.

For ATTTACTATG, the switch fluorescence ratio was 0.984.

AATGTTTGCG was tested, and the switch fluorescence ratio was 1.06.

Work on AGGGTGGCA yielded a switch fluorescence ratio of 0.99.

In the case of CCAATGGTG, the switch fluorescence ratio is reported as 1.28.

Work on AAAGTTGTTA yielded a switch fluorescence ratio of 1.01.

In the case of CTCTGTTGGG, the switch fluorescence ratio is reported as 1.01.

With AACGTTTAT the switch fluorescence ratio was 0.983.

AGAACTCATG gave a switch fluorescence ratio of 0.957.

For GGATCATTTT, the switch fluorescence ratio was 0.991.

With AGCCTATTTC the switch fluorescence ratio was 1.03.

CCACCTGACC was tested, and the switch fluorescence ratio was 1.72.

In the case of ACGGCGCAA, the switch fluorescence ratio is reported as 1.12.

Work on GAGATGGCAG yielded a switch fluorescence ratio of 1.01.

ATGGCACCCG was tested, and the switch fluorescence ratio was 1.07.

Sequence GGTCTTATAC has a switch fluorescence ratio of 1.11.

Work on CTTGGTTATC yielded a switch fluorescence ratio of 1.04.

Sequence CAGTGCTGGT has a switch fluorescence ratio of 1.

Sequence GAAAGGTTGC has a switch fluorescence ratio of 0.986.

With AAGATGTTAA the switch fluorescence ratio was 0.97.

TATCGTACCT was tested, and the switch fluorescence ratio was 1.26.

In the case of GTTACGTCCT, the switch fluorescence ratio is reported as 0.991.

Work on AGCCGTTAGG yielded a switch fluorescence ratio of 1.

GAGCCGAAGA showed a switch fluorescence ratio of 0.99.

In the case of CATAAGAAAT, the switch fluorescence ratio is reported as 0.972.

In the case of AGGCAGTACC, the switch fluorescence ratio is reported as 1.11.

Work on CTTAATTCAG yielded a switch fluorescence ratio of 0.992.

ATCTACGCTG gave a switch fluorescence ratio of 1.11.

In the case of GAGTAACAAC, the switch fluorescence ratio is reported as 1.05.

In the case of TACTCTGACG, the switch fluorescence ratio is reported as 1.03.

For ATTGGCCCAG, the switch fluorescence ratio was 0.992.

With AATCTCTAGG the switch fluorescence ratio was 1.03.

ACCCTCCAGT was tested, and the switch fluorescence ratio was 1.3.

Sequence AAACCAAGTA has a switch fluorescence ratio of 1.03.

In the case of TAGATTACAG, the switch fluorescence ratio is reported as 1.02.

Work on CCTTATGGTA yielded a switch fluorescence ratio of 1.02.

For GGAGGTCGCT, the switch fluorescence ratio was 1.03.

In the case of AATGCGGTGG, the switch fluorescence ratio is reported as 1.03.

Work on ACCCAATCCA yielded a switch fluorescence ratio of 1.02.

With GCTTGAATGC the switch fluorescence ratio was 1.03.

GTGATACCTT gave a switch fluorescence ratio of 1.12.

Sequence GCTGGCATGC has a switch fluorescence ratio of 0.99.

For GACTACAAGC, the switch fluorescence ratio was 1.15.

With TGAAGGCCAG the switch fluorescence ratio was 1.01.

Work on TTTCGCAC yielded a switch fluorescence ratio of 2.08.

TGCACTGTCG showed a switch fluorescence ratio of 1.02.

Sequence TTTGAACGCG has a switch fluorescence ratio of 1.
